The target of data set [1] is T1, h.TF-His (Homo sapiens, UniProt P13726).
T1 construct: with the extracellular segment of aa 33-aa 251; His; made in house; host or cells: HEK293-EBNA
The experiment in a line: Antigenic protein-based ELISA on human TF-His. The data set is classed as binding.

Data set [2] concerns c.TF-His. The data set can be described thus: Antigenic protein-based ELISA on cynomolgus monkey TF-His. The format is binding. The following applies: coated cynomolgus monkey TF-his protein. A general note: An ELISA detects its analyte on a solid surface through an enzyme-linked reagent.
Data set [3] has as its system TF antigen-positive NCI-H358 cells. The experiment in a line: Cell-based ELISA on NCI-H358 cells. The following applies: fixed NCI-H358 cells.
Data set [4] can be described thus: Antibody hydrophilicity/hydrophobicity assay by HIC. The following applies: retention on hydrophobic chromatography column. The format is physicochemical.
The test system of data set [5] is TF low/medium-expressing cell line NCI-H358. The data set can be described thus: Flow cytometry cell binding, NCI-H358. The format is cell-based.
In data set [6] the test system is TF high-expressing cell line KYSE520. The data set can be described thus: Flow cytometry cell binding, KYSE520. The format is cell-based. On the technique in general: A flow cytometer gives signals particle by particle.
Data set [7] addresses T1, h.TF-His. The experiment in a line: Dynamic affinity by ForteBio, human TF-His. The format is binding.
The subject of data set [8] is c.TF-His. The data set can be described thus: Dynamic affinity by ForteBio, cynomolgus TF-His. The format is binding, cynomolgus monkey. Background: In BLI a coated tip is dipped into the sample, and binding shifts an interference pattern.
The test system of the next data set is NCI-H358 cells. The experiment in a line: Endocytic activity by flow cytometry (FACS). The format is cell-based.
Data set [9] deals with coagulation initiated by TF on the cell surface (MDA-MB-231 cells). The data set can be described thus: Effect on coagulation initiated by TF-positive cells in human plasma. The data set is classed as cell-based. Conditions: combining the results of the two experiments.
Data set [10] in a line: Serum stability in human serum. The format is in vitro ADME. Conditions: 20 μg/mL, 37° C., 14 days, ELISA.
The target of another data set is T2, TF antigen (Homo sapiens, UniProt P13726).
T2 construct: with the extracellular segment of aa 33-aa 251; His; made in house; host or cells: HEK293-EBNA
The experiment in a line: Affinity ELISA before and after conjugation with B81. The data set is classed as binding. Conditions: antibody before and after conjugation with B81 (DL-01), DAR8 method.

The test system of data set [11] is TF-positive tumor cells KYSE520. The experiment in a line: In vitro killing activity assay on ADCs. The following applies: after the conjugation with B81, 120 h, CCK8. The data set is classed as cell-based.
Data set [12] deals with subcutaneous KYSE520 xenograft. The experiment in a line: In vivo efficacy in subcutaneous KYSE520 xenograft. Set-up: species or system Balb/c Nude mice. Conditions: after the conjugation with B81.

From patent publication US20250333541A1, “ANTIBODY, AND DRUG CONJUGATE AND USE THEREOF” (EVOPOINT BIOSCIENCES CO., LTD., priority 2022, published 2025) come the findings set out here.

T1 sequence (P13726 33-251): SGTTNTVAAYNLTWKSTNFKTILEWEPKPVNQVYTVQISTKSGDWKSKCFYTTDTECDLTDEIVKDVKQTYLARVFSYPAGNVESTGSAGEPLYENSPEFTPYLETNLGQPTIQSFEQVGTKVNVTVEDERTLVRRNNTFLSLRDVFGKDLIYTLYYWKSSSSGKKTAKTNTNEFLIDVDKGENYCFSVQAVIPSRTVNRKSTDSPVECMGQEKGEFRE
T2 sequence (P13726 33-251): as above

B1: 27H8H3-hz1 (antibody)
heavy: QVQLVQSGAEVKKPGASVKVSCKASGYTFTTYWMHWVRQAPGQGLEWMGMIDPSDSYTSYAQKFQGRVTLTVDTSTSTAYMELSSLRSEDTAVYYCTRGSGPGLFAYWGQGTLVTVSS[sequence of human IgG1 constant region omitted]
light: DIQETQSPSSLSASVGDRVTITCRASQGISNYLNWYQQKPGKAPKLLIYHTSRLHSGVPSRFSGSVSGTDFTLTISSLQPEDFATYFCQQGNTLPYTFGQGTKVEIKRTVAAPSVFIFPPSDEQLKSGTASVVCLLNNFYPREAKVQWKVDNALQSGNSQESVTEQDSKDSTYSLSSTLTLSKADYEKHKVYACEVTHQGLSSPVTKSFNRGEC
Take B1: the “h.TF-His EC50” value in the data set with h.TF-His [1] (coated human TF-his protein) was 0.008147 µg/mL. Moreover, the “binding activity (in words)” value with h.TF-His [1] (to human/cynomolgus TF-his and TF-positive cells) is listed as “good binding activity”. In the data set on c.TF-His [2], the “c.TF-His EC50” value was 0.01137 µg/mL. In addition, the entries for the “NCI-H358 EC50” value in [3] and in [5] were 0.03479 µg/mL and 0.09906 µg/mL, respectively. Besides, the HIC in [4] stood at 10.43 min. Moreover, in data set [6], the “KYSE520 EC50” value was 0.05943 µg/mL. Also, the ka was found to be 273000 M⁻¹ s⁻¹ with h.TF-His [7] and 295000 M⁻¹ s⁻¹ in the data set on c.TF-His [8]. The kdis with h.TF-His [7] amounted to 0.0116 s⁻¹; in the data set on c.TF-His [8], 0.0125 s⁻¹. For the same molecule, the “endocytosis rate compared with reference antibody (in words)” value in the data set on NCI-H358 cells is listed as “superior to that of the reference antibody”. In [9], the “effect on human coagulation (in words)” value is recorded as “least effect on human coagulation”. Further, the “change in affinity after storage in human serum” value in data set [10] was “no significant change in affinity”. Moreover, the EC50 with TF antigen was found to be 0.00313 µg/mL. In addition, the “killing IC50 compared with reference antibody ADC (in words)” value in data set [11] is on record as “substantially comparable to that of the reference antibody ADC”. Besides, the “anti-tumor effects in mice (in words)” value in data set [12] was “good anti-tumor effects”.

As a reminder, the EC50 is the concentration at which the effect is half-maximal.
